PubChem BioAssay AID434955 (Southern Research Specialized Biocontainment Screening …, 2010)
This is one part of the list. These are further read-outs of the screen, such as a control signal, another cell line or another target. No call is given for them. Compounds called inactive in the main read-out are mostly missing here.

Assay: beta-lactam sensitization of Mtb H37Rv, H37Rv (AID 434955);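 note: growth measured after seven days incubation then overnight dye step; 0% = bacteria only wells and 100% = bacteria with antibiotic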
Details: M. tuberculosis H37Rv growth with meropenem, percent inhibition; measured here: primary screen without meropenem; at 25 µM

SMILES | inhibition
CCOc1cc(/C=N/O)ccc1OCC(=O)Nc1cccc(C)c1 | 46.8%
Cc1cccc(NC(=S)NC2CC3C=CC2C3)c1 (centres undefined) | 37.1%
CCc1cc(C(=O)N2CCCC(Nc3ccc(F)c(F)c3)C2)n(C)n1 (centres undefined) | -1.97%
O=C1CNC(=S)N1CCCc1ccccc1 | 1.72%
O=C(NC1CCCc2ccccc21)C1CCN(c2c3c(nc4ncnn24)CCC3)CC1 (centres undefined) | 5.62%
O=C(Cn1nc(-c2cccc(Cl)c2)ccc1=O)Nc1cccnc1 | 6.63%
CCN(c1ccc(OC)cc1)S(=O)(=O)c1ccc2c(c1)CCN2C(=O)CCC(=O)O | -2.77%
COc1ccc(N2CCN(CC(=O)Nc3ccccc3C(=O)NCc3ccccc3)CC2)cc1 | 83.4%
O=c1c2c3n(c(=S)nc2[nH]n1-c1ccccc1)CCCCC3 | -1.07%
COc1ccccc1CNC(=O)c1ccc(SC)cc1OC | 25.9%
COc1ccc(-c2nn3cnnc3s2)cc1OC | -7.05%
Cc1c(C(=O)Nc2cnccn2)oc2ccccc12 | -0.25%
COc1ccc(/C=C/C(=O)N(C(C)C)C(C)C)cc1Br | 56.8%
CN(C)C(=O)N1CCN(C(=O)c2ccco2)CC1 | -4.52%
CCS(=O)(=O)N1Cc2ccccc2CC1C(=O)Nc1nc2ccc(F)cc2s1 (centres undefined) | 47%
COc1ccc(Cl)cc1NC(=O)CCc1nnc2ccc(N3CCC4(CC3)OCCO4)nn12 | -4.98%
COc1ccc2c(c1OC)C(=O)OC2Nn1cncn1 (centres undefined) | 2.09%
O=C(CC1CCCC1)N1CCCC(Nc2ccc(F)cc2)C1 (centres undefined) | -3.65%
S=C(NNc1ccc2ccccc2c1)NC1CCCCC1 | 46.2%
CCOC(=O)C1(Cc2cccc(Cl)c2)CCCN(C(=O)CCN2CCCC2=O)C1 (centres undefined) | 0.27%
CCc1cccc(NC(=O)CCC(=O)N2CCSc3ccccc32)c1 | -10.4%
COc1ccc(C(=O)Nc2cccc3c2CCCC3)c(OC)c1 | 35.8%

SMILES | inhibition
CCOC(=O)/C(C#N)=C\c1ccc(N2CCN(C/C=C/c3ccccc3)CC2)cc1 | 84.7%
CC(=O)N1c2c(cc(Br)cc2S(=O)(=O)N2CCN(c3ccccn3)CC2)CC1C (centres undefined) | 1.33%
O=C(Nc1ncc([N+](=O)[O-])s1)c1ccco1 | 0.17%
COc1ccc(C2N3CC4(C)CN2CC(C)(C3)C4=O)cc1OC (centres undefined) | -10.5%
Cc1ccc(C(=O)NCC(=O)OCc2nnc(-c3ccccc3)o2)cc1 | 5.62%
CSc1ccccc1NC(=O)COc1ccc(Cl)cc1C | 19.7%
O=C(CN1C(=O)S/C(=C\c2cccc(Cl)c2)C1=O)NCCCn1ccnc1 | 5.7%
CCc1nc(CNC(=O)C2CCC(=O)N(CCc3ccc(OC)cc3)C2)cs1 (centres undefined) | 5.87%
CCOc1ccccc1/C=N/n1c(COc2ccccc2)n[nH]c1=S | 5.3%
O=C(N/N=C/c1cc([N+](=O)[O-])ccc1O)C1CC1 | 21.6%
CCN(CC)c1nc(Nc2ccccc2)nc(Oc2ccc(=O)n(C)n2)n1 | 4.38%
COc1ccc(C(=O)Nc2ccc(OCC(=O)N3CCOCC3)cc2)c(OC)c1OC | -7.55%
O=C(CSc1ncnc2c1cnn2-c1ccccc1)Nc1ccc2c(c1)OCO2 | 10.8%
CCC(C)(C(=O)NC1CCCC1)N(CC1CCCO1)C(=O)c1ccc2c(c1)OCO2 (centres undefined) | -8.7%
Cc1ccnc(NC(=O)Cn2c(=O)oc3ccccc32)c1 | -8.09%
Cc1c[nH]c2cccc(OCC(CNC(C)(C)C)OC(=O)c3ccccc3)c12 (centres undefined) | 1.94%
O=C(NC(=O)c1csnn1)Nc1ccccc1Cl | -0.67%
O=C(CSc1nnc(CNC(=O)c2c(F)cccc2F)o1)NCc1ccc(F)cc1 | 4.54%
CC(C)CN(C(=O)CCc1ccccc1)c1c(N)n(CC(C)C)c(=O)[nH]c1=O | -7.64%
O=C(Nc1nnc(SCCC2OCCO2)s1)C1CC(=O)N(c2ccc(F)cc2)C1 (centres undefined) | 5.97%
CN(c1ccccc1)c1nc(N)c([N+](=O)[O-])c(Nc2ccc(F)cc2)n1 | -0.48%
O=C(COn1nnc2ccc(Cl)cc21)NC12CC3CC(CC(C3)C1)C2 | 40.6%

SMILES | inhibition
CC(Sc1nncs1)C(=O)NC1CCCCC1C (centres undefined) | 5.31%
COCCOc1ccc(C(F)(F)F)cc1NC(=O)COC(=O)c1c(C)noc1C | -18.7%
Cc1ccsc1C1NC(=O)c2c(sc3c2CCCC3)N1 (centres undefined) | -4.69%
CN(C)c1nc(=S)nc(NCc2ccccc2)[nH]1 | 5.74%
CC1CCN(S(=O)(=O)c2ccc3c(c2)N(C)C(=O)CC(=O)N3C)CC1 | -12.8%
O=[N+]([O-])c1ccccc1/C=N/Nc1nnc(-c2ccccc2)c(-c2ccccc2)n1 | -13.8%
CCCCc1nc(C(N)=O)c2[nH]c(=O)n(-c3ccc(OC)cc3OC)c2n1 | -2.08%
CC(C)N1CCc2c(sc(NC(=O)CCS(=O)(=O)c3ccccc3)c2C#N)C1 | -1.34%
C/C(CC(=O)Nc1ccccc1Br)=N\NC(=O)C(=O)N1CCCC1 | -2.63%
CC(C)(C)NC(=O)CSc1nnc(-c2ccccn2)n1-c1ccccc1 | -0.8%
CCN(C)c1ccc(/C=N\n2nnnc2N)cc1 | -9.34%
O=C(Nc1nccs1)c1cccc(S(=O)(=O)N2CCCCC2)c1 | -0.37%
CC1CCc2c(sc3ncnc(N4CCOCC4)c23)C1 (centres undefined) | -11.4%
CSc1ncnc2c1ccn2CC(=O)Nc1ccc(C)c(C)c1 | 41.4%
C=CCNC1=C(Cl)C(=O)c2ccccc2C1=O | 46.5%
O=C(Nc1ccccc1C(=O)NCCN1CCOCC1)c1ccco1 | 3.36%
CCCN(C(=O)c1ccc2c(SCC(=O)O)c3c(nc2c1)CCC3)c1cccc(C)c1 | -2.19%
Cc1cc(C)c(C)c(S(=O)(=O)NCc2ccc(C(=O)N3CCN(C)CC3)cc2)c1C | -5.78%
CC1CCc2c(C(=O)Nc3cccc(-c4nn[nH]n4)c3)csc2C1 (centres undefined) | 0.37%
O=C(N/N=C/c1cc(Cl)c(O)c(Cl)c1)c1cc2c(ccc3ccccc32)o1 | 0.54%
CC1CCN(C(=O)CSc2nnc(Cn3c(=O)sc4ccccc43)n2C)CC1 | -13.1%
Cc1ccccc1OCCNC(=O)/C=C/c1ccc([N+](=O)[O-])cc1 | -6.47%

SMILES | inhibition
Brc1ccc(-c2nn3c(-c4ccccn4)nnc3s2)o1 | -3.7%
Cc1nc(N)c(C#N)c(-c2cccnc2)c1-c1ccccc1 | -3.36%
Cc1ccc(NC2=C(Cl)C(=O)OC2OC(=O)c2ccco2)c(C)c1 (centres undefined) | -8.5%
CN(C)S(=O)(=O)c1ccc(C(=O)/C=C/c2cccnc2)cc1 | 18.5%
O=C(CSc1ccc2nnc(-c3ccccn3)n2n1)Nc1ccccc1C(F)(F)F | 0.17%
O=C(Nc1cccc(-c2ccc(N3CCCCC3)nn2)c1)C(F)(F)F | 5.09%
COc1cccc(C2CC(c3ccc(C)cc3)n3nc(N)nc3N2)c1 (centres undefined) | -14.8%
CC1(C)CC(CCNC(=O)CCl)(c2ccccc2)CCO1 (centres undefined) | 49.6%
CCOc1cc(/C=N/Nc2nc(-c3cccs3)c(NC(C)=O)s2)ccc1O | 37.3%
O=C(Nc1ccccc1)N1CCC(C(=O)N2CCN(S(=O)(=O)c3cccc(F)c3)CC2)CC1 | 5.28%
CCC(=O)N1CCc2cc(Br)cc(S(=O)(=O)NCC3CCCN3CC)c21 (centres undefined) | 10.7%
COc1ccccc1N1CC(C(=O)Nc2nnc(SCC(=O)NCC3CCCO3)s2)CC1=O (centres undefined) | -2.5%
CCN(CC)C(=O)C1CCN(C(=O)c2oc3ccc(C)cc3c2C)CC1 | 1.17%
Cc1[nH]c2ccccc2c1C(=O)COC(=O)C1CCC1 | 1.6%
O=C(N/C(=C/c1ccco1)C(=O)N1CCOCC1)c1ccccc1Br | -0.22%
Cc1ccc(NC(=O)COc2ccc(C(=O)NCCc3ccccc3)cc2)cc1 | -0.96%
CC(=O)c1cccc(NC(=O)CN2C(=O)c3cccnc3Oc3ccc(Cl)cc32)c1 | 3.46%
CCN1CCN(C(=O)C(=O)c2cn(CC(=O)N3CCCC3)c3ccccc23)CC1 | 9.45%
C=CCNc1nc2ccccc2nc1NS(=O)(=O)c1cccc(C)c1 | -0.75%
CCOC(=O)N1CCN(C(=O)c2cc(COc3ccc(F)cc3F)on2)CC1 | -0.7%
FC(F)(F)c1ccc(/C=N/n2c(C3CCCCC3)n[nH]c2=S)cc1 | 20%
CC(=O)Nc1cn(C(C)=O)c(C)n1 | -4.39%

SMILES | inhibition
COc1ccccc1CN1CC(C(=O)NC2(c3ccccc3)CC2)CCC1=O (centres undefined) | 3.64%
COc1ccc(C(=O)N=c2sc3c(C)ccc(OC)c3n2C)cc1OC | 0.98%
Cc1csc2c(=O)n3c(nc12)CCCCC3 | 3.52%
Cc1ccc(S(=O)(=O)C2(C(=O)N3CCN(C4CCCCC4)CC3)CC2)cc1 | -1.73%
O=C(NCCc1ccccn1)C(F)(F)C(F)(F)C(F)(F)C(F)(F)C(F)(F)C(F)(F)C(F)(F)C(F)F | -0.42%
CCOc1ccc2ccccc2c1C(=O)N1CCN(c2ccccc2)CC1 | 3.48%
CSCC[C@H](NC(=O)c1cccs1)c1nnc2ccccn12 | -2.17%
O=C(c1ccc2c(c1)OCO2)N1CCC2(CC1)OCCO2 | 3.66%
CCc1cc2c(-c3ccccc3)cc(=O)oc2cc1OC(C)C(C)=O (centres undefined) | -0.99%
COc1ccccc1CCC(=O)Nc1cccc(S(=O)(=O)N2CCOCC2)c1 | -0.56%
COc1ccc(S(=O)(=O)N2CCN(C(=O)c3cc(-c4ccc(C)cc4)n[nH]3)CC2)cc1 | 4.09%
COc1ccc(NC(=O)c2cccc(N3C(=O)C4C5C=CC(C6CC56)C4C3=O)c2)cc1 (centres undefined) | -0.64%
COC(=O)[C@H](CCSC)NC(=O)NCCc1ccc(F)cc1 | 0.77%
O=C(Cc1ccc(F)cc1)Nc1ccccc1Sc1ccccc1 | -6.58%
CCC(=O)NC(=S)Nc1ccc(-c2nc3ccccc3s2)cc1 | 20.4%
CCOC(=O)c1c(C)n(C)c2ccc(OCC(O)Cn3c(C)nc4ccccc43)cc12 (centres undefined) | 81.1%
COc1cc2c(cc1OC)-c1cc(NC3CCCC3)nc(=O)n1CC2 | -6.97%
COc1ccc(N(C(=O)c2cccnc2)S(=O)(=O)c2ccc(Cl)cc2)cc1 | 0.37%
COc1ccc(CCN2CCCC(CN(C)C(=O)c3cc(C)oc3C)C2)cc1 (centres undefined) | 1.72%
CCOC(CNC(=O)CN1C(=O)COc2ccc(S(=O)(=O)N3CC(C)CC(C)C3)cc21)OCC (centres undefined) | 2.48%
O=C(NCCCn1ccnc1)/C(=C\c1cccnc1)NC(=O)c1cccc(Br)c1 | -5.5%
